Publication PMC4336329 (PLoS ONE, 2015)
Out of some 310,000 compounds screened, about 14,000 (4.5%) showed an effect of 50% or more. Effects have a minus sign here. The list shows a part of the results.

These compounds were tested against human ether-à-go-go-related gene (hERG) potassium channel (human, UniProt Q12809) (assay: primary screen, population patch clamp on CHO cells stably expressing hERG).
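Note: peak tail current of the secondary pulse compared with the same well before compound.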

Chain of human ether-à-go-go-related gene (hERG) potassium channel (Q12809 whole entry, looked up): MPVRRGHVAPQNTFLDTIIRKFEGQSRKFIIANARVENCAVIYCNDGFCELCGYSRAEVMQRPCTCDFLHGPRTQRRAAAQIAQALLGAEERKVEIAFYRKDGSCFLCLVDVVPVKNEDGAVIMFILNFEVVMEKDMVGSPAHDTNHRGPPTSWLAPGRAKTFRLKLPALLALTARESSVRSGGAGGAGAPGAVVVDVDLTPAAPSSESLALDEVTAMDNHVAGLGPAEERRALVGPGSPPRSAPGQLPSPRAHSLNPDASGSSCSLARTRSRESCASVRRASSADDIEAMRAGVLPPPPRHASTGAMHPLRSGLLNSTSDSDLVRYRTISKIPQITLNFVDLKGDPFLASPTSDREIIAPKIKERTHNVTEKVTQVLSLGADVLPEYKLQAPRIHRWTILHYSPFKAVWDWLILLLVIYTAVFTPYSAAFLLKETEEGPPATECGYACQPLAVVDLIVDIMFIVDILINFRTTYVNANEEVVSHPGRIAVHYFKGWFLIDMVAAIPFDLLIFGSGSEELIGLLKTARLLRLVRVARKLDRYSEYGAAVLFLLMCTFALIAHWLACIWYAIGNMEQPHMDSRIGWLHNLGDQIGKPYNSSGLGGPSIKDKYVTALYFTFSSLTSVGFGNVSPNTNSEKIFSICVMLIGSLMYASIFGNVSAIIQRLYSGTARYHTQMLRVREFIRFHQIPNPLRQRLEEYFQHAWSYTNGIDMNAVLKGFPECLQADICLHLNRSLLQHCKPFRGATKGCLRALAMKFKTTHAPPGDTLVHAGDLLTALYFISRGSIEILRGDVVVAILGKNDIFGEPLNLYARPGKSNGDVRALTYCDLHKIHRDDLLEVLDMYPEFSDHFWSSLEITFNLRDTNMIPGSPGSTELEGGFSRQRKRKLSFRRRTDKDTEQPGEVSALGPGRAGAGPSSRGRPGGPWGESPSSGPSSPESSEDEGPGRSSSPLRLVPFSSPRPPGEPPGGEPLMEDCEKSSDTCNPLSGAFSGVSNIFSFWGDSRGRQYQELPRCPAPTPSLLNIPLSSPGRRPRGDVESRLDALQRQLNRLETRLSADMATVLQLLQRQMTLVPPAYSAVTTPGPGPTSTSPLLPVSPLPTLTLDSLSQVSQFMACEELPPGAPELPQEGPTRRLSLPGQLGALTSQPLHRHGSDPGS

Compound	hERG current change (%, negative = inhibition) at 10uM [%]
CC1(C)C(C=C(Cl)Cl)C1C(=O)N1CCN(c2ccccc2)CC1 (stereo not drawn)	-37
Cc1csc(Nc2ccc(C(=O)O)cc2)n1	6.71
COc1ccc(CCN(C)C2CCCN(C(=O)Cn3cnnn3)C2)cc1OC (stereo not drawn)	10.2
O=C(c1ccc(Br)c([N+](=O)[O-])c1)N1CCN(Cc2ccccc2)CC1	-61.2
CCOC(=O)C1C(=O)OC2(CCOC(C)(C)C2)C1C(=O)OCC (stereo not drawn)	5.89
CCCn1c(C(C)Nc2nc(-c3ccc(C)cc3)cs2)nc2ccccc21 (stereo not drawn)	19.7
Fc1cccc(/C=N/Nc2ccccn2)c1	21.6
CN(C)C(=O)c1ccc(-n2nc(C(F)(F)F)c3c2CCCC3)cc1	-8.71
COc1ccccc1C(=O)Nn1c(-c2cccs2)nc2ccccc2c1=O	-2.66
Cc1csc(SCC(=O)Nc2cc([N+](=O)[O-])ccc2F)n1	-12.4
CCN(CC)CCCNC(=O)c1[nH]c(C)c(C(=O)NC2CCCCC2)c1C	12.9
CCCCn1c(O)c(N=NC(=O)c2ccco2)c2ccccc21	-14.3
COc1cc2c(cc1NC(=O)CSc1nnc(COc3ccc(Cl)cc3)n1C)oc1ccccc12	6.05
CC(=O)c1cnc(-c2ccccc2Cl)s1	15.5
O=C(CN1CCN(Cc2ccccc2)CC1)Nc1ccccc1-c1ccccc1	-89.8
O=C(NCCOc1ccccc1)C1CCC(=O)N(CCc2ccc(Cl)cc2)C1 (stereo not drawn)	-88.2
COc1ccc(C(=O)Nc2nncs2)cc1S(=O)(=O)N1CCOCC1	15.1
CC(=O)c1ccc(NC(=O)N2CCc3ccccc3C2)cc1	-0.383
CNC(=O)CSc1nnc(SCCC(=O)O)s1	8.17
Cc1ccc(CN2CCN(CCCn3cccn3)CC2CCO)cc1 (stereo not drawn)	-66.9
COc1ccc(CCNC(=O)CC2Nc3cc(C)c(C)cc3NC2=O)cc1OC (stereo not drawn)	4.98
CN(CC(=O)Nc1ccc2c(c1)OCCO2)Cc1nc2ccccc2c(=O)[nH]1	-1.08
O=C(CCCc1ccccc1)NCCN1CCOCC1	-4.9

Compound	hERG current change (%, negative = inhibition) at 10uM [%]
COc1ccccc1CNc1nc(S(=O)(=O)c2ccccc2)c(Cl)s1	-0.147
CCOC(=O)c1sc(NC(=O)c2ccc(C)o2)nc1C	-5.35
O=C(CNc1ccc2c(c1)OCO2)N/N=C\c1cn(Cc2ccccc2)c2ccccc12	15.9
O=C(NCc1cccnc1)c1ccc(S(=O)(=O)N2CCOCC2)cc1	-8.02
Cc1c(-c2cccs2)[n+](=O)c2c(n1[O-])CCCC2	2.34
O=C(N/N=C/c1c(-c2ccccc2)[nH]c2ccccc12)c1cccnc1	-33.2
S=c1[nH]ncn1/N=C/c1ccccc1	16.8
O=C(OCn1nnc2ccccc2c1=O)c1ccc(O)cc1	-24.5
Cc1ccc(N2C(=O)/C(=C/N3CCN(C(=O)c4ccco4)CC3)C(=O)NC2=S)cc1C	18.3
COC(=O)c1cc2c(ccn2-c2ccc(F)cc2)n1Cc1cccc(OC)c1	0.0373
N=C1/C(=C/c2coc3ccccc3c2=O)C(=O)N=C2SC(c3ccco3)=NN12	12.8
CCC(C)(CC(=O)N(C)CCC#N)c1ccccc1 (stereo not drawn)	-0.111
Cc1cccc(OCCn2c(=O)sc3ccccc32)c1	-3.38
CN(C)CCCN(C(=O)c1ccc2c(c1)CCCC2)c1nc2cc3c(cc2s1)OCO3.Cl	-71
CN(Cc1cccs1)C(=O)/C=C/c1ccccc1[N+](=O)[O-]	-4.36
CN1CCc2c(sc3c2C(=O)NC(c2cccc(OC(=O)c4cccs4)c2)N3)C1 (stereo not drawn)	-4.38
COc1ccccc1C(CNC(=O)c1cccc(S(=O)(=O)NCc2ccccc2)c1)N(C)C (stereo not drawn)	-39.1
COc1cccc(-n2c(=S)sc3c(=O)n(-c4ccccc4C)c(SCC(=O)O)nc32)c1	16.5
CCOC(=O)c1c(C)[nH]c(C)c1C(=O)CSc1nnc(N)s1	9.9
CNc1nnc(SCC(=O)c2cc(C)n(C3CC3)c2C)s1	4.59
O=C(Cc1ccccc1)NN1C(=O)/C(=C/c2ccc(C(=O)O)cc2)SC1=S	17.2
Cc1cc(C)c(S(=O)(=O)N2CCOCC2)c(C)c1N(C)S(=O)(=O)c1ccccc1	-26.9
